Source: patent US20230012428A1 (JIANGSU HENGRUI MEDICINE, published 2023)

B1: h1830-S85 (bispecific antibody, human IgG4 S228P, kappa)
heavy: QVQLQESGPGLVKPSQTLSLTCTVSGGSISDGSAYWSWIRQHPGKGLEYIGFISRAGSTYNTPSLKGRVTISRDTSKNQFSLKLSSVTAADTAVYYCARSGGWLAPFDYWGRGTLVTVSSASTKGPSVFPLAPCSRSTSESTAALGCLVKDYFPEPVTVSWNSGALTSGVHTFPAVLQSSGLYSLSSVVTVPSSSLGTKTYTCNVDHKPSNTKVDKRV[human IgG4 Fc with S228P (EU numbers) not given here]GGGGSGGGGSGGGGGGEEELQMIQPEKLLLVTVGETATLHCTVTSLLPVGPVLWFRGVGPGRELIYVSGRGHFPRVTTVSDLTKRNNKDFSIRISSITPADVGTYYCVKFRKGSPEDVEFKSGPGTEMALGAKPS
light: DIVMTQSPDSLAVSLGERATINCKSSQSLFYHSNQKHSLAWYQQKPGQPPKLLIYGASTRESGVPDRFSGSGSGTDFTLTISSLQAEDVAVYYCQQYYGYPYTFGGGTKVEIKRTVAAPSVFIFPPSDEQLKSGTASVVCLLNNFYPREAKVQWKVDNALQSGNSQESVTEQDSKDSTYSLSSTLTLSKADYEKHKVYACEVTHQGLSSPVTKSFNRGEC
notes: h1830 IgG4 with SIRPγ variant S85, GS16 linker; also called PD-L1-CD47 bifunctional fusion protein
B2: h1830-S37 (bispecific antibody, human IgG4 S228P, kappa)
heavy: QVQLQESGPGLVKPSQTLSLTCTVSGGSISDGSAYWSWIRQHPGKGLEYIGFISRAGSTYNTPSLKGRVTISRDTSKNQFSLKLSSVTAADTAVYYCARSGGWLAPFDYWGRGTLVTVSSASTKGPSVFPLAPCSRSTSESTAALGCLVKDYFPEPVTVSWNSGALTSGVHTFPAVLQSSGLYSLSSVVTVPSSSLGTKTYTCNVDHKPSNTKVDKRV[human IgG4 Fc with S228P (EU numbers) not given here]GGGGSGGGGSGGGGGGEEELQMIQPEKLLLVTVGETATLHCTVTSLLPVGPVLWFRGVGPGRELIYMSGRGHFPRVTTVSDLTKRNNKDFSIRISSITPADVGTYYCVKFRKGSPEDVEFKSGPGTEMALGAKPS
light: B1 light
notes: also called PD-L1-CD47 bifunctional fusion protein
B3: h1830-19-S79 (bispecific antibody, human IgG4 S228P, kappa)
heavy: QVQLQESGPGLVKPSQTLSLTCTVSGGSISDGSAYWSWIRQHPGKGLEYIGFISRAGSTYNTPSLKGRVTISRDTSKNQFSLKLSSVTAADTAVYYCARSGGWLAPFDYWGRGTLVTVSSASTKGPSVFPLAPCSRSTSESTAALGCLVKDYFPEPVTVSWNSGALTSGVHTFPAVLQSSGLYSLSSVVTVPSSSLGTKTYTCNVDHKPSNTKVDKRV[human IgG4 Fc with S228P (EU numbers) not given here]GGGGSGGGGSGGGGSGGGGEEELQMIQPEKLLLVTVGETATLHCTVTSLWPVGPVLWFRGVGPGRELIYRTGTGRFPRVTTVSDLTKRNNMDFSIRISSITPADVGTYYCVKFRKGSPEDVEFKSGPGTEVALGAKPS
light: B1 light
notes: h1830 IgG4 with SIRPγ variant S79, GS19 linker; also called PD-L1-CD47 bifunctional fusion protein
B4: h1830-S58 (bispecific antibody, human IgG4 S228P, kappa)
heavy: QVQLQESGPGLVKPSQTLSLTCTVSGGSISDGSAYWSWIRQHPGKGLEYIGFISRAGSTYNTPSLKGRVTISRDTSKNQFSLKLSSVTAADTAVYYCARSGGWLAPFDYWGRGTLVTVSSASTKGPSVFPLAPCSRSTSESTAALGCLVKDYFPEPVTVSWNSGALTSGVHTFPAVLQSSGLYSLSSVVTVPSSSLGTKTYTCNVDHKPSNTKVDKRV[human IgG4 Fc with S228P (EU numbers) not given here]GGGGSGGGGSGGGGGGEEELQMIQPEKLLLVTVGETATLHCTVTSLLPVGPVLWFRGVGPGRELIYMSGRGHFPRVTTVSDLTKRNNMDFSIRISSITPADVGTYYCVKFRKGSPEDVEFKSGPGTEMALGAKPS
light: B1 light
notes: h1830 IgG4 with SIRPγ variant S58, GS16 linker; also called PD-L1-CD47 bifunctional fusion protein
B5: h1830-S15 (bispecific antibody, human IgG4 S228P, kappa)
heavy: QVQLQESGPGLVKPSQTLSLTCTVSGGSISDGSAYWSWIRQHPGKGLEYIGFISRAGSTYNTPSLKGRVTISRDTSKNQFSLKLSSVTAADTAVYYCARSGGWLAPFDYWGRGTLVTVSSASTKGPSVFPLAPCSRSTSESTAALGCLVKDYFPEPVTVSWNSGALTSGVHTFPAVLQSSGLYSLSSVVTVPSSSLGTKTYTCNVDHKPSNTKVDKRV[human IgG4 Fc with S228P (EU numbers) not given here]GGGGSGGGGSGGGGGGEEELQMIQPEKLLLVTVGETATLHCTVTSLLPVGPVLWFRGVGPGRELIYVSGRGHFPRVTTVSDLTKRENRDFSIRISSITPADVGTYYCVKFRKGSPEDVEFKSGPGTEMALGAKPS
light: B1 light
notes: h1830 IgG4 with SIRPγ variant S15, GS16 linker; also called PD-L1-CD47 bifunctional fusion protein
B6: h1830-S19 (bispecific antibody, human IgG4 S228P, kappa)
heavy: QVQLQESGPGLVKPSQTLSLTCTVSGGSISDGSAYWSWIRQHPGKGLEYIGFISRAGSTYNTPSLKGRVTISRDTSKNQFSLKLSSVTAADTAVYYCARSGGWLAPFDYWGRGTLVTVSSASTKGPSVFPLAPCSRSTSESTAALGCLVKDYFPEPVTVSWNSGALTSGVHTFPAVLQSSGLYSLSSVVTVPSSSLGTKTYTCNVDHKPSNTKVDKRV[human IgG4 Fc with S228P (EU numbers) not given here]GGGGSGGGGSGGGGGGEEELQMIQPEKLLLVTVGETATLHCTVTSLLPVGPVLWFRGVGPGRELIYVSGRGHFPRVTTVSDLTKRNNRDFSIRISSITPADVGTYYCVKFRKGSPEDVEFKSGPGTEMALGAKPS
light: B1 light
notes: h1830 IgG4 with SIRPγ variant S19, GS16 linker; also called PD-L1-CD47 bifunctional fusion protein

Biological target: T1, Human CD47-his (CD47-ECD-His) (human, UniProt Q08722 in part, limits assumed)
T1 construct: also called hCD47; free human CD47 protein
Experiment: ELISA, CD47-his coated on plate

EC50 [µg/mL] | Binder
0.0847 | B1
0.0407 | B2

Biological target: T2, Cyno CD47-his (cyno, UniProt A0A2K5X523 19-139)
T2 construct: extracellular domain; not shown: His tag
Experiment: ELISA, CD47-his coated on plate

EC50 [µg/mL] | Binder
0.0641 | B1
0.0306 | B2

Biological target: T3, PD-L1-Fc (prepared in-house) (human, UniProt Q9NZQ7 in part, limits assumed)
T3 construct: Prepared in-house; also called human PD-L1-Fc; not shown: Fc
Experiment: blocking ELISA, PD-L1-Fc coated, competitor biotin-labeled PD-1

IC50 [µg/mL] | Binder
0.0814 | B1
0.0647 | B3
0.102 | B4
0.146 | B2
0.0471 | B5
0.0518 | B6

Biological target: T4, Cyno PD-L1-His (cyno, UniProt G7PSE7 19-239)
T4 construct: Bought; not shown: His tag
Experiment: ELISA, PD-L1-his coated on plate

EC50 [µg/mL] | Binder
0.207 | B1
0.254 | B3
0.32 | B4
0.177 | B2
0.232 | B5
0.179 | B6

Biological target: T5, mPD-L1 (mouse, UniProt Q9EP73 in part)
T5 construct: Bought; also called Mouse PD-L1-his; Mouse PD-L1
Experiment: ELISA, PD-L1-his coated on plate

EC50 [µg/mL] | Binder
0.0275 | B1
0.0582 | B3
0.0335 | B4
0.032 | B2
0.0386 | B5
0.034 | B6

Biological target: T6, hPD-L1-His (human, UniProt Q9NZQ7 in part)
T6 construct: Bought; also called Human PD-L1-his; Human PD-L1; not shown: His tag
Experiment: ELISA, PD-L1-his coated on plate

EC50 [µg/mL] | Binder
0.142 | B1
0.0952 | B3
0.161 | B4
0.0993 | B2
0.128 | B5
0.167 | B6

Biological target: T4, Cyno PD-L1-His
T4 sequence (G7PSE7 entry or part of it): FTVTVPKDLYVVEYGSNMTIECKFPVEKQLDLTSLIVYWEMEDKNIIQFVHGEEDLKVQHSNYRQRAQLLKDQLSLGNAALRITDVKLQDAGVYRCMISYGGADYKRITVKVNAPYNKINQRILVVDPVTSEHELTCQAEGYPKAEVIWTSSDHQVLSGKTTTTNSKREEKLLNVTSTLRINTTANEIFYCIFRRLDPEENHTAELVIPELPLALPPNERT
Experiment: SPR (Biacore T200), binder captured on Protein A chip, antigen in flow

Kd [nM] | Binder
0.397 | B1
0.398 | B4
0.409 | B2
0.496 | B5
0.424 | B6

Biological target: T1, Human CD47-his (CD47-ECD-His)
T1 sequence (Q08722 19-139 limits assumed): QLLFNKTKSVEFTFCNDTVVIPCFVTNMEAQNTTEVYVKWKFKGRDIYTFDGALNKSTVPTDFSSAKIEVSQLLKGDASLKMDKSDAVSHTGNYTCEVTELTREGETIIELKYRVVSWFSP
Experiment: as above

Kd [nM] | Binder
3.84 | B1
1.95 | B4
1.72 | B2
4.11 | B5
5.6 | B6

Biological target: T5, mPD-L1
T5 sequence (Q9EP73 19-238 limits assumed): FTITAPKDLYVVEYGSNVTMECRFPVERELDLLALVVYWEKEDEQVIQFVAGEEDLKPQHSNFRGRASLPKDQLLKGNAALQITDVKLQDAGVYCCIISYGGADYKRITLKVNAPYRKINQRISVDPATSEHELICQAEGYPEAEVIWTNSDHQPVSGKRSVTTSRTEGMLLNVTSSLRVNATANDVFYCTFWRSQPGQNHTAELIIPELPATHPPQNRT
Experiment: as above

Kd [nM] | Binder
85.8 | B1
75.1 | B4
70.9 | B2
78.8 | B5
68.6 | B6

Biological target: T2, Cyno CD47-his
Experiment: as above

Kd [nM] | Binder
4.63 | B1
2.18 | B4
2.03 | B2
4.78 | B5
6.55 | B6

Biological target: T6, hPD-L1-His
T6 sequence (Q9NZQ7 19-239 limits assumed): as the sequence (G7PSE7 entry or part of it) above, with T33A, S34A, N62S, Q68R, R82Q, L173F, A185T, I192T, L215H counted along it
Experiment: as above

Kd [nM] | Binder
0.374 | B1
0.374 | B4
0.387 | B2
0.38 | B5
0.399 | B6

Biological target: T1, Human CD47-his (CD47-ECD-His)
Experiment: ELISA, CD47-his coated on plate
Remark: another data set of the same source

EC50 [µg/mL] | Binder
0.0712 | B1
0.0905 | B3
0.0408 | B4
0.0538 | B2
0.0641 | B5
0.0673 | B6

Biological target: T2, Cyno CD47-his
Experiment: ELISA, CD47-his coated on plate
Remark: another data set of the same source

EC50 [µg/mL] | Binder
0.0667 | B1
0.0435 | B3
0.0618 | B4
0.0515 | B2
0.0723 | B5
0.0634 | B6

Biological target: T3, PD-L1-Fc (prepared in-house)
T3 sequence (Q9NZQ7 19-238 limits assumed): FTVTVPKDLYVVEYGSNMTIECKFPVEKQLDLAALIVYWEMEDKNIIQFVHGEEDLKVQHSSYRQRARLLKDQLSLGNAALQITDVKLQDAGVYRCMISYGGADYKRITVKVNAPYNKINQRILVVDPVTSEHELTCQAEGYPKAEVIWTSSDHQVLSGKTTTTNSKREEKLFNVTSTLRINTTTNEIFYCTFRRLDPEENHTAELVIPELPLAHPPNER
Experiment: blocking ELISA, PD-L1-Fc coated, competitor biotin-labeled B7-1

IC50 [µg/mL] | Binder
0.148 | B1
0.0988 | B3
0.127 | B4
0.169 | B2
0.0555 | B5
0.0342 | B6
